Over roughly 33,000 sequences, “E-score (-0.5 to 0.5)” has its median near -0.041; the highest 2% begin near 0.37. The list shows a part of the results.
The sequences below were run against T1, Ecm22 (UniProt Q05958) (assay: PBM E-score (8-mer binding enrichment) (E-score (-0.5 to 0.5)); higher = stronger / more preferred TF binding; most listed sequences are background and not binding sites). Details: protein concentration: 200 nM; construct: GST-full length.
T1 sequence: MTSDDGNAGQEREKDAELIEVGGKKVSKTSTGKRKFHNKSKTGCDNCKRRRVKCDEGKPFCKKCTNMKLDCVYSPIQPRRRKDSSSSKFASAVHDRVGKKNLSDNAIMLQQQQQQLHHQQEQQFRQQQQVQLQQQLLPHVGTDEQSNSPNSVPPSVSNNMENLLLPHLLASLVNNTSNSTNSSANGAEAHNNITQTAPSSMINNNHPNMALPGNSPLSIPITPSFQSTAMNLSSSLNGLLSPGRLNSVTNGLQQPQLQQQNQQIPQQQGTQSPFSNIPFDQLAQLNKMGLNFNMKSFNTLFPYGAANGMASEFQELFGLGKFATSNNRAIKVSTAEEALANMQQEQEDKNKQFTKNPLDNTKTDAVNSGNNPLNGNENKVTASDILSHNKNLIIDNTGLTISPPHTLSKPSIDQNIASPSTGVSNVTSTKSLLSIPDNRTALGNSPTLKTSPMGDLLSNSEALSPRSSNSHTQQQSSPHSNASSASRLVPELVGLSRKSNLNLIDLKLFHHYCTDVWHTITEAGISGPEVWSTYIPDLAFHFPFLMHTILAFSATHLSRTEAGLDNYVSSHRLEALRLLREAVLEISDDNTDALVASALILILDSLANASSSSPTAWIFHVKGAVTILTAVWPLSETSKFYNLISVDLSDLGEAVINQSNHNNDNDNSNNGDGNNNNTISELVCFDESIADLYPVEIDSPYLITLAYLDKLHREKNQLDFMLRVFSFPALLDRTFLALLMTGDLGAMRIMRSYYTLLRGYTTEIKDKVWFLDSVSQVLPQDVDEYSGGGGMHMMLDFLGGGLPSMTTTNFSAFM
How it was run: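 The E-score, a modified Wilcoxon-Mann-Whitney statistic, was computed by the Universal PBM Analysis Suite for every ungapped eight-base word pooled with its reverse complement. Scans behind it were normalised with masliner after bound GST-tagged yeast transcription factors were detected with fluorescent anti-GST. The proteins, at about 100-200 nM, had been applied to universal all-10-mer Agilent arrays made double-stranded by primer extension.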

| Sequence | PBM E-score |
| --- | --- |
| TACGCAGA | 0.159 |
| TGAAACAA | 0.0186 |
| AACCTCCG | -0.0653 |
| ATTCACTA | -0.108 |
| TATATCGA | 0.131 |
| GAGCGGAC | 0.119 |
| GATGTGGC | -0.138 |
| CTCGCGTA | 0.317 |
| CCAGGACC | -0.178 |
| GTGTACCA | 0.0289 |
| CGAAAGCA | 0.203 |
| CATTGTCA | -0.0156 |
| GACTTCTC | -0.105 |
| ATAGGGTC | -0.187 |
| AGGTAGAC | -0.0732 |
| ACCATTAC | 0.149 |
| CCAACCCC | -0.22 |
| CAACGTGG | -0.0743 |
| TGCACCCA | -0.0185 |
| CGCGGGTA | 0.00857 |
| AACGACTG | 0.393 |
| TTCCAAAA | -0.00821 |
| ATACTAGA | 0.042 |
| CACCTACG | -0.00657 |
| AGCTGCAT | -0.104 |

| Sequence | PBM E-score |
| --- | --- |
| AGTAGGAT | -0.043 |
| AAATTTCC | 0.0144 |
| ATGAGTTA | -0.0747 |
| CAGTGGCA | -0.302 |
| CAGAATTA | 0.00283 |
| AGGGATGA | -0.197 |
| ACAAATGT | 0.149 |
| GAGGAAGA | -0.0765 |
| CAGCAAGG | -0.197 |
| GTTCCATA | 0.108 |
| CCGCGCTA | 0.0135 |
| AATTGCAT | 0.0822 |
| ATCCTCTG | -0.0183 |
| CTAGATAA | -0.0387 |
| CGAAGTAA | 0.25 |
| ATGGCCCC | -0.209 |
| GCGATACA | 0.111 |
| ACATCTGA | -0.172 |
| ATATCAAT | 0.0853 |
| ACGTGTAT | 0.031 |
| AACACTAG | -0.0879 |
| ATACGGCA | 0.404 |
| AGCCAGAG | -0.0877 |
| AGGTCACC | -0.24 |
| GACGTAGA | -0.0256 |

| Sequence | PBM E-score |
| --- | --- |
| CAATGTAG | -0.11 |
| ACCCAGCT | -0.0797 |
| ACGCCGGG | -0.101 |
| AGATCATG | -0.13 |
| AAGTGCAC | 0.0505 |
| CCTGTCTC | -0.177 |
| AATAATAC | 0.214 |
| GCGACTTA | 0.0663 |
| ACACGCTA | 0.0348 |
| AGTCATGA | -0.148 |
| CGATAAAG | 0.0902 |
| CTCCGTAC | 0.386 |
| GTGAGTAA | -0.161 |
| ATTGATTA | 0.153 |
| GTATAATA | 0.366 |
| ATTAAATC | 0.0123 |
| GTCCTAAA | 0.156 |
| ACCGGGGG | -0.234 |
| ACGTCGCC | -0.0891 |
| TACAGGCA | 0.0853 |
| GTGTACAC | -0.0623 |
| CGTGTTAC | 0.176 |
| AGGGCATA | -0.124 |
| AACGGGAT | 0.296 |
| CTACGCCC | -0.133 |

| Sequence | PBM E-score |
| --- | --- |
| CTATAAAC | 0.182 |
| TAGTTCGA | -0.0786 |
| ACCCTTTG | -0.197 |
| CCACCAGG | -0.142 |
| AGTAGGGC | -0.116 |
| CGTTTTAC | 0.27 |
| CAAAGTCG | 0.109 |
| AGTGGTAG | -0.256 |
| ATTGTGCC | -0.251 |
| GCGCGAAC | 0.161 |
| ATGGTAGG | -0.21 |
| CTAGATTA | 0.0455 |
| CAGTACGA | 0.423 |
| TCCAACGA | 0.00088 |
| ACCGAAAC | 0.186 |
| CTTAGGGC | -0.18 |
| GGATCTCA | -0.208 |
| CGTGATAC | 0.117 |
| AATGCGGC | 0.0713 |
| GTATGGGA | 0.0697 |
| ATTTGACG | 0.12 |
| CCTCCCTC | 0.0625 |
| GCAACTCC | -0.282 |
| GAACCCAA | 0.0131 |
| ATCAGATG | -0.142 |

| Sequence | PBM E-score |
| --- | --- |
| ACCTGCAC | -0.038 |
| GGGGGAAC | 0.121 |
| CATATCGC | 0.153 |
| GGTTACAC | 0.0466 |
| GAAATTGC | 0.0049 |
| CCCGAGAC | 0.181 |
| AAACCACG | -0.0695 |
| AGGACTGA | -0.23 |
| AGTCATTA | -0.199 |
| CGCTAAGC | 0.119 |
| ACAGAGAC | -0.00787 |
| ACACTCGC | 0.192 |
| CGGTGGTA | 0.0967 |
| GTAGGTCA | -0.0922 |
| GACATCCA | -0.135 |
| GAGTTGGA | -0.213 |
| GAGGCAGC | -0.313 |
| GCCAATCA | -0.144 |
| GACCGGAC | 0.172 |
| CTCTAATC | -0.0922 |
| CACGAGTC | -0.0272 |
| ACCTTCGC | 0.143 |
| CAGCGGAG | -0.0191 |
| CAACAGCA | -0.216 |
| CAAACGAG | 0.463 |

| Sequence | PBM E-score |
| --- | --- |
| AATCATAG | -0.262 |
| ATATTGAA | 0.0933 |
| CTAGTGAA | -0.122 |
| ACCCAAAC | 0.0384 |
| ATGTCTTC | -0.27 |
| CCAGGGAC | -0.217 |
| ATCCCCAC | -0.126 |
| ATTAAGGA | -0.131 |
| ATTCTTTG | -0.212 |
| GCTGATGA | -0.13 |
| GCCATTCA | -0.143 |
| AGCTGCGA | 0.0231 |
| ACGAAGCG | 0.317 |
| CAGGTCCA | -0.167 |
| CTTGCGCC | -0.0722 |
| CACCACTG | -0.067 |
| CCGACTAC | 0.0341 |
| ATCGACGA | -0.00044 |
| AGCGCCCT | -0.116 |
| AAGAGGCC | -0.11 |
| GTTCGTGA | 0.141 |
| CAAAGTGG | -0.197 |
| AGTACGTA | 0.283 |
| GGTAGACC | 0.00782 |
| GACCGACC | 0.188 |

| Sequence | PBM E-score |
| --- | --- |
| GTGACCGA | 0.176 |
| GTTTTGTA | 0.18 |
| GACGCGAC | 0.0286 |
| CTCTTGAC | -0.0432 |
| CTCCCTTC | -0.245 |
| AACGGGTC | 0.163 |
| AGCAAGAT | -0.0406 |
| AGCGGTCA | -0.179 |
| TCTATTCA | 0.0404 |
| CATTCGGC | -0.0765 |
| GGCTGACA | -0.144 |
| TACTTCTA | -0.0166 |
| AATACAGA | -0.0653 |
| ACGAGAGG | 0.362 |
| CGTACATA | 0.414 |
| AAGCCGAG | 0.0901 |
| ACCCGACT | 0.1 |
| GCGAATCC | 0.209 |
| AACTATCA | 0.137 |
| GTATTACA | 0.142 |
| CTGCGCGC | 0.17 |
| CGGTGCCA | -0.206 |
| AAAGGTGG | -0.179 |
| ACGGCCTA | 0.219 |
| ACGATTAA | 0.308 |

| Sequence | PBM E-score |
| --- | --- |
| ACTCAGAT | -0.113 |
| ACCTGAGC | -0.0674 |
| AGATGGCA | 0.0424 |
| TCCGCGCA | 0.0162 |
| GTTCAGAA | 0.174 |
| AATTACCG | 0.231 |
| AACATTCG | 0.0929 |
| AACAAGAA | -0.103 |
| AGTGGATG | 0.0301 |
| ACAGACCC | -0.0656 |
| TACCTGAA | 0.0384 |
| AAAGCCCG | 0.0235 |
| GGTACCAC | -0.137 |
| ATTTGGCG | 0.114 |
| AGACTCGA | -0.114 |
| CTCGGCTA | 0.164 |
| CTCTGGAC | -0.0989 |
| GCATAAGA | -0.0193 |
| ATAGTACC | 0.00552 |
| ATTGCCAG | -0.0635 |
| AATACCAC | -0.0274 |
| AAATTTTG | -0.213 |
| AATTTCGG | 0.052 |
| ACTGTCCT | -0.0726 |
| AAGTCAGC | 0.0129 |

| Sequence | PBM E-score |
| --- | --- |
| AGCACTGC | -0.141 |
| GCTTCTCC | -0.0844 |
| CTGGTACC | -0.16 |
| TTCGCCAA | 0.0928 |
| CATCGGCG | -0.154 |
| ACAGTGAC | -0.109 |
| ATGCGGAC | 0.109 |
| CGTCAATA | -0.146 |
| ACACTCTG | 0.0047 |
| CCGCCACC | -0.209 |
| ACTCTGCG | 0.0804 |
| ATAGCGCG | 0.158 |
| CTAATCCA | -0.2 |
| CAGAACCG | 0.0537 |
| GAACTATC | -0.00715 |
| TAGCCCAA | -0.239 |
| GTGCACAC | -0.141 |
| CAACAAAC | 0.0891 |
| AGCTGTGG | -0.264 |

Source: the supplement of paper PMC3334620
